Test results published in the RNAGym collection of RNA variant scans (doi:10.1073/pnas.2313332121).
Variants at the floor of the assay are shown more often than the library holds them.

B1: TPR 5TU (parent)
chain: GGAUCUUCUCGAUCUAACAAAAAAGACAAAUCUGCCACAAAGCUUGAGAGCAUCUUCGGAUGCAGAGGCGGCAGCCUUCGGUGGCGCGAUAGCGCCAACGUUCUCAACUAUGACACGCAAAACGCGUGCUCCGUUGAAUGGAGUUUAUCAUG

Variants of: B1
Assay: polymerase ribozyme fitness, log enrichment relative to wild type (log ratio); higher = more active; in vitro selection for triplet polymerase activity
Method in brief: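 Fitness compares each genotype's enrichment to that of the wild type on a logarithmic scale, averaging replicates with inverse-variance weights. The logarithm is base 2. Enrichment came from Illumina sequencing of input and output libraries after one triplicate round of in vitro selection, which included frozen incubation at −7 °C, of PCR-built, transcribed mutant libraries of each subunit of a heterodimeric triplet polymerase ribozyme. Only genotypes with ≥10 input reads and ≥1 read per output were kept.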

Row | Variant | polymerase ribozyme fitness (log ratio)
1 | GGAUCUUCUCGAUCUAACAAAAAAGACAAAUCUGCCACAAAGCUUGAGAGCAUCUUCGGAUGCAGAGGCGGCAGCCUUCGGUGGCGCGAUAGCGCCAACGUUCUCAACUAUAACACGCAAAACGCGUGCUCCAUUGAAUGGAGUUUAUCAUG | ≤ -4.2
2 | GGAUCUUCUCGAUCUAACAAAAAAGACAAAUCUGCCACAAAGCUUGAGAGCAUCUUCGGAUGCAGAGGCGGCAGCCUUCGGUGGCGCGAUAGCGCCAACGUUCUCAACGAUGACACGAAAAACGGGUGCUCCGUUGAAUGGAGUUUAUCAUG | -3.62
3 | GGAUCUUCUCGAUCUAACAAAAAAGACAAAUCUGCCACAAAGCUUGAGAGCAUCUUCGGAUGCAGAGGCGGCAGCCUUCGGUGGCGCGAUAGCGCCAACGUUCUCACCUAUGACACGUAAAACGCGUGCUCCGUUGAAUGGAGUUUAUCAUG | ≤ -4.2
4 | GGAUCUUCUCGAUCUAACAAAAAAGACAAAUCUGCCACAAAGCUUGAGAGCAUCUUCGGAUGCAGAGGCGGCAGCCUUCGGUGGCGCGAUAGCGCCAACGUUCUCAACUAUGGCACGCAAAACGCGUGCUCCGUUGAUUGGAGUUUAUCAUG | -3.79
5 | GGAUCUUCUCGAUCUAACAAAAAAGACAAAUCUGCCACAAAGCUUGAGAGCAUCUUCGGAUGCAGAGGCGGCAGCCUUCGGUGGCGCGAUAGCGCCAACGUUCUCAAGUAUGACACGCAAAACGCGUGCUCCGUUAAAUGGAGUUUCUCAUG | ≤ -4.2
6 | GGAUCUUCUCGAUCUAACAAAAAAGACAAAUCUGCCACAAAGCUUGAGAGCAUCUUCGGAUGCAGAGGCGGCAGCCUUCGGUGGCGCGAUAGCGCCAACGUUCUCAUCUAUGACACGGAAAACGCGUGCUCCGUUGAAUGGAGUUUUUGAGG | ≤ -4.2
7 | GGAUCUUCUCGAUCUAACAAAAAAGACAAAUCUGCCACAAAGCUUGAGAGCAUCUUCGGAUGCAGAGGCGGCAGCCUUCGGUGGCGCGAUAGCGCCAACGUUCUCACCUGUGACACGCAAGACGCGUGCUCCGUUGAAUGGAGUUUAUCAUG | ≤ -4.2
8 | GGAUCUUCUCGAUCUAACAAAAAAGACAAAUCUGCCACAAAGCUUGAGAGCAUCUUCGGAUGCAGAGGCGGCAGCCUUCGGUGGCGCGAUAGCGCCAACGUUCUCAGCUAUGACACGCAAAACGCGUGCUCCGUUGAAUGUAGUUUAUCAUG | -3.07
9 | GGAUCUUCUCGAUCUAACAAAAAAGACAAAUCUGCCACAAAGCUUGAGAGCAUCUUCGGAUGCAGAGGCGGCAGCCUUCGGUGGCGCGAUAGCGCCAACGUUCUCAGCUAUGACACGCAAAACGCGUGCUCCGUUGAAUGAAGUUUAUCAUG | -2.72
10 | GGAUCUUCUCGAUCUAACAAAAAAGACAAAUCUGCCACAAAGCUUGAGAGCAUCUUCGGAUGCAGAGGCGGCAGCCUUCGGUGGCGCGAUAGCGCCAACGUUCUCAUCGAUGACACGCAAAACGCGUGCUCCGUUGAAUGGAGUUUAUCAUG | ≤ -4.2
11 | GGAUCUUCUCGAUCUAACAAAAAAGACAAAUCUGCCACAAAGCUUGAGAGCAUCUUCGGAUGCAGAGGCGGCAGCCUUCGGUGGCGCGAUAGCGCCAACGUUCUCAAUUAUGACACGCAAAACGCGUGCUCCGUUGAAUUGAGUUUAUCAUG | ≤ -4.2
12 | GGAUCUUCUCGAUCUAACAAAAAAGACAAAUCUGCCACAAAGCUUGAGAGCAUCUUCGGAUGCAGAGGCGGCAGCCUUCGGUGGCGCGAUAGCGCCAACGUUCUCAACUAGGACACGCAAAACACGUGCUCCGUUGAAUGGAGUGUAUCAUG | ≤ -4.2
13 | GGAUCUUCUCGAUCUAACAAAAAAGACAAAUCUGCCACAAAGCUUGAGAGCAUCUUCGGAUGCAGAGGCGGCAGCCUUCGGUGGCGCGAUAGCGCCAACGUUCUCAAAUAUGACACGCAAUACGCGUGCUCCGUUGAAUGGAGUUUAUCAUG | ≤ -4.2
14 | GGAUCUUCUCGAUCUAACAAAAAAGACAAAUCUGCCACAAAGCUUGAGAGCAUCUUCGGAUGCAGAGGCGGCAGCCUUCGGUGGCGCGAUAGCGCCAACGUUCUCAACUAUGCCACGAAAAACGCGUGCUCCGUUGAAUGGAGUUUAUCAUG | ≤ -4.2
15 | GGAUCUUCUCGAUCUAACAAAAAAGACAAAUCUGCCACAAAGCUUGAGAGCAUCUUCGGAUGCAGAGGCGGCAGCCUUCGGUGGCGCGAUAGCGCCAACGUUCUCAUCUAUGACACGCAGAACGCGUGCUCAGUUGAAUGGAGUUUCUCAUG | ≤ -4.2
16 | GGAUCUUCUCGAUCUAACAAAAAAGACAAAUCUGCCACAAAGCUUGAGAGCAUCUUCGGAUGCAGAGGCGGCAGCCUUCGGUGGCGCGAUAGCGCCAACGUUCUCAUCUAUGACACGCAAAACGCGUGCUCCGUCGAAUGGAGUUUAUCAUG | -4.04
17 | GGAUCUUCUCGAUCUAACAAAAAAGACAAAUCUGCCACAAAGCUUGAGAGCAUCUUCGGAUGCAGAGGCGGCAGCCUUCGGUGGCGCGAUAGCGCCAACGUUCUCAACUCUGACACGCAAAACGCGUGCUCCGUUUAAUGGAGUUUAUCAUG | ≤ -4.2
18 | GGAUCUUCUCGAUCUAACAAAAAAGACAAAUCUGCCACAAAGCUUGAGAGCAUCUUCGGAUGCAGAGGCGGCAGCCUUCGGUGGCGCGAUAGCGCCAACGUUCUCAACUACGACACUCAAAACGCGUGCUCCGUUGAAUGGAGUUUAUCAUG | -4.09
19 | GGAUCUUCUCGAUCUAACAAAAAAGACAAAUCUGCCACAAAGCUUGAGAGCAUCUUCGGAUGCAGAGGCGGCAGCCUUCGGUGGCGCGAUAGCGCCAACGUUCUCAACUAUAACACGCUAAACGCGUGCUCCGUUGAAUGGAGUUUAUCAUG | ≤ -4.2

Row | Variant | polymerase ribozyme fitness (log ratio)
20 | GGAUCUUCUCGAUCUAACAAAAAAGACAAAUCUGCCACAAAGCUUGAGAGCAUCUUCGGAUGCAGAGGCGGCAGCCUUCGGUGGCGCGAUAGCGCCAACGUUCUCAGCUAUGACACGCAAUACGCGUGCUCCGUUGAAUGGAGUUUAUCAUG | -4.18
21 | GGAUCUUCUCGAUCUAACAAAAAAGACAAAUCUGCCACAAAGCUUGAGAGCAUCUUCGGAUGCAGAGGCGGCAGCCUUCGGUGGCGCGAUAGCGCCAACGUUCUCGACCAUGACACUCACAACGCGUGCUCCGUUGAACGGAGUUUAUCAUG | ≤ -4.2
22 | GGAUCUUCUCGAUCUAACAAAAAAGACAAAUCUGCCACAAAGCUUGAGAGCAUCUUCGGAUGCAGAGGCGGCAGCCUUCGGUGGCGCGAUAGCGCCAACGUUCUCAACUGUGACACGCAAAACGCGUGCUCCGUUAAAUGGAGUUUAUCAUG | -2.94
23 | GGAUCUUCUCGAUCUAACAAAAAAGACAAAUCUGCCACAAAGCUUGAGAGCAUCUUCGGAUGCAGAGGCGGCAGCCUUCGGUGGCGCGAUAGCGCCAACGUUCUCAACUAUUACACGCAAAACGCGUGCUCCGUUGAAUGAAGUUUAGCAUG | ≤ -4.2
24 | GGAUCUUCUCGAUCUAACAAAAAAGACAAAUCUGCCACAAAGCUUGAGAGCAUCUUCGGAUGCAGAGGCGGCAGCCUUCGGUGGCGCGAUAGCGCCAACGUUCUCAACUAUAACACGCAAAGCGCGUGCUCCGUUGGAUGGAGUUUAUCAUG | ≤ -4.2
25 | GGAUCUUCUCGAUCUAACAAAAAAGACAAAUCUGCCACAAAGCUUGAGAGCAUCUUCGGAUGCAGAGGCGGCAGCCUUCGGUGGCGCGAUAGCGCCAACGUUCUCAACGAUGACAAGCAAAACGCGUGCUCCGUUGAAUGGAGUUUAUCAUG | -2.26
26 | GGAUCUUCUCGAUCUAACAAAAAAGACAAAUCUGCCACAAAGCUUGAGAGCAUCUUCGGAUGCAGAGGCGGCAGCCUUCGGUGGCGCGAUAGCGCCAACGUUCUCAACGAUGACAGGCAAAACGCGUGCUCCGUUGAAUGGAGUUUAUCAUG | -0.501
27 | GGAUCUUCUCGAUCUAACAAAAAAGACAAAUCUGCCACAAAGCUUGAGAGCAUCUUCGGAUGCAGAGGCGGCAGCCUUCGGUGGCGCGAUAGCGCCAACGUUCUCAACCAUGAUACGCAAAACGCGUGCUCCGUUGAAUGGAGUUUAUCAUG | -3.87
28 | GGAUCUUCUCGAUCUAACAAAAAAGACAAAUCUGCCACAAAGCUUGAGAGCAUCUUCGGAUGCAGAGGCGGCAGCCUUCGGUGGCGCGAUAGCGCCAACGUUCUCAAAUAUGACACGCAAAACUCGUGCUCCGUUGAAUCGAGUUUAUCAUG | ≤ -4.2
29 | GGAUCUUCUCGAUCUAACAAAAAAGACAAAUCUGCCACAAAGCUUGAGAGCAUCUUCGGAUGCAGAGGCGGCAGCCUUCGGUGGCGCGAUAGCGCCAACGUUCUCAAGUAUGACACGCAAAACGCGUGCUCCGUUGAAUGGAGUUUAUCAAG | ≤ -4.2
30 | GGAUCUUCUCGAUCUAACAAAAAAGACAAAUCUGCCACAAAGCUUGAGAGCAUCUUCGGAUGCAGAGGCGGCAGCCUUCGGUGGCGCGAUAGCGCCAACGUUCUCAGCUAUGACACGCAAAACGCGUGCUACGUUGAAUGGAGUUUAUCAUG | -4.19
31 | GGAUCUUCUCGAUCUAACAAAAAAGACAAAUCUGCCACAAAGCUUGAGAGCAUCUUCGGAUGCAGAGGCGGCAGCCUUCGGUGGCGCGAUAGCGCCAACGUUCUCAUCUAUGACGCGCAAAACGCGUGCUCCGUUGAAUGGAGUUUAUCAUG | -4.16
32 | GGAUCUUCUCGAUCUAACAAAAAAGACAAAUCUGCCACAAAGCUUGAGAGCAUCUUCGGAUGCAGAGGCGGCAGCCUUCGGUGGCGCGAUAGCGCCAACGUUCUCAACUGUGACACGCAAAACGCGUGCUCCGGUGAAUGGAGUUUAUCAUG | -4.07
33 | GGAUCUUCUCGAUCUAACAAAAAAGACAAAUCUGCCACAAAGCUUGAGAGCAUCUUCGGAUGCAGAGGCGGCAGCCUUCGGUGGCGCGAUAGCGCCAACGUUCUCAAGUAUGACACGCAAAACGCGUGCUCCGUUGAAUGGAGUCUAUCAUG | ≤ -4.2
34 | GGAUCUUCUCGAUCUAACAAAAAAGACAAAUCUGCCACAAAGCUUGAGAGCAUCUUCGGAUGCAGAGGCGGCAGCCUUCGGUGGCGCGAUAGCGCCAACGUUCUCAACGAUGACACGGAAAACGCGUGCUCCGUUGAAUGGAGAUUAUCAUG | -3.88
35 | GGAUCUUCUCGAUCUAACAAAAAAGACAAAUCUGCCACAAAGCUUGAGAGCAUCUUCGGAUGCAGAGGCGGCAGCCUUCGGUGGCGCGAUAGCGCCAACGUUCUCUAAUAUGACACGCAAAACGCGUGCUCCGUUGAAUGGAGUUUAUCAUG | ≤ -4.2
36 | GGAUCUUCUCGAUCUAACAAAAAAGACAAAUCUGCCACAAAGCUUGAGAGCAUCUUCGGAUGCAGAGGCGGCAGCCUUCGGUGGCGCGAUAGCGCCAACGUUCUCAACUGUGACACGCAAAACGCGUGCUCCGUUGAAUUGAGUUUAUCAUG | ≤ -4.2
37 | GGAUCUUCUCGAUCUAACAAAAAAGACAAAUCUGCCACAAAGCUUGAGAGCAUCUUCGGAUGCAGAGGCGGCAGCCUUCGGUGGCGCGAUAGCGCCAACGUUCUCAGCUAUGACACGCAAAACGCGUGCUCCGUUGAAUGGAUUUUAUCAUG | -3.81
38 | GGAUCUUCUCGAUCUAACAAAAAAGACAAAUCUGCCACAAAGCUUGAGAGCAUCUUCGGAUGCAGAGGCGGCAGCCUUCGGUGGCGCGAUAGCGCCAACGUUCUCAACAAUGACACGCAAAACGCGUGCUCCGUUGAAUGGAGUUUAUCAAG | ≤ -4.2
